Data taken from PMC6643034.
Results are given in words; binding and its absence hold for the method and conditions named. Some entries that bind do so weakly or less than the wild type. For some assays here: Tags and fused reporters may be left off the sequences shown.

By UniProt entry, the sequences of proteins in these tests, tags left out. Residues count along the entry.
UniProt P19876, residues 35-107: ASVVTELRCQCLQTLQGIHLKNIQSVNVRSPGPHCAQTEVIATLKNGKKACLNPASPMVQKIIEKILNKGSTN
UniProt P13236, residues 24-92: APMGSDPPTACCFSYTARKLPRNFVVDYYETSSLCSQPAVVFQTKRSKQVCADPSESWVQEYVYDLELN
UniProt P42830, residues 37-114: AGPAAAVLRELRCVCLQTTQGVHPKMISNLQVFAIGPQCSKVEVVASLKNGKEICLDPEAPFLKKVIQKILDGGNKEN
UniProt P51671, residues 24-97: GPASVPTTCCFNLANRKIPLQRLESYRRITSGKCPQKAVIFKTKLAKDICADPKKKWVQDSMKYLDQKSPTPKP
UniProt P09341, residues 35-107: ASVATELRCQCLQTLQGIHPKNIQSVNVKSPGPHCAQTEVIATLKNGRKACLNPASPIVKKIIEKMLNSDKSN
UniProt P13500, residues 24-99: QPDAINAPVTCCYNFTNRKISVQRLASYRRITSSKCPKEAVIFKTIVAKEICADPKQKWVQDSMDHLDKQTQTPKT
UniProt P80098, residues 24-99: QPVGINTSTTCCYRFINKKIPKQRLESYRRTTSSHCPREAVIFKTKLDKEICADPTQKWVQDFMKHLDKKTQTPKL
UniProt P19875, residues 35-107: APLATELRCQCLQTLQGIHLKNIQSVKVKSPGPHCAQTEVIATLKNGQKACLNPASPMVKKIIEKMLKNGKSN
UniProt P13501, residues 24-91: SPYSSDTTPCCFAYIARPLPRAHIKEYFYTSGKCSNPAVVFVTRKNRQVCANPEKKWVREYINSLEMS
UniProt Q99616, residues 17-98: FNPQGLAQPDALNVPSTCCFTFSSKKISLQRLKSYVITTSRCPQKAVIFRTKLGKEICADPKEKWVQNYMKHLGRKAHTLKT
UniProt O00585, residues 24-134: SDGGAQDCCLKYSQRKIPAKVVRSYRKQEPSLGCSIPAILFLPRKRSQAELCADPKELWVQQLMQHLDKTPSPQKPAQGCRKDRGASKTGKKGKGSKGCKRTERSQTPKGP
UniProt P02778, residues 22-98: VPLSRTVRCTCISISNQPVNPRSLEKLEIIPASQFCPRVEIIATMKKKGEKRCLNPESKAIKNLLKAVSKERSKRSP
UniProt P78556, residues 27-96: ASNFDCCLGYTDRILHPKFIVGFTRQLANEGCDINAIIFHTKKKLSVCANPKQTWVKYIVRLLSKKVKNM
UniProt P10147, residues 24-92: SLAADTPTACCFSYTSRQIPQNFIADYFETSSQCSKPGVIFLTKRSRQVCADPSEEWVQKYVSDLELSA
UniProt P80075, residues 24-99: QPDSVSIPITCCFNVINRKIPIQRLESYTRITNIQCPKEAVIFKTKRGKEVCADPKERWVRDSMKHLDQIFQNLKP
UniProt Q92583, residues 24-94: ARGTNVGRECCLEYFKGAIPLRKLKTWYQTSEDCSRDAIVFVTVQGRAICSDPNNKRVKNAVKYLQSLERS
UniProt Q99731, residues 22-98: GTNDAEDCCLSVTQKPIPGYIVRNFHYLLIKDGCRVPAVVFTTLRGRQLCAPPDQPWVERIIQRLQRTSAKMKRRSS

Assays:
Assay in all cases: BLI; cross-binding screen on OctetRed; evasin held on a nickel-coated biosensor through its C-terminal His tag; each human chemokine at 300 nM; both purified
[1] = target: T1, P1172_IXORI (Ixodes ricinus) (UniProt V5I2G9)
T1 sequence: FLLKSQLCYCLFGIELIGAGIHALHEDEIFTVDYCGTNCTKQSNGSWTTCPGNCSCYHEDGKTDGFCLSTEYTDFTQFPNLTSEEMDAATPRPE

[2] = target: T2, EVA3_RHISA (Rhipicephalus sanguineus) (UniProt P0C8E8)
T2 sequence: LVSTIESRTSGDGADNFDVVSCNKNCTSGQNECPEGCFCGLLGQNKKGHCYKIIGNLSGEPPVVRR

[3] = target: P942_IXORI (Ixodes ricinus)
[4] = target: P1090_IXORI (Ixodes ricinus)
[5] = target: P1086_IXORI (Ixodes ricinus)
[6] = target: P1080_IXORI (Ixodes ricinus)
[7] = target: P1124_IXORI (Ixodes ricinus)
[8] = target: T3, P1126_AMBCA (Amblyomma cajennense)
T3 sequence: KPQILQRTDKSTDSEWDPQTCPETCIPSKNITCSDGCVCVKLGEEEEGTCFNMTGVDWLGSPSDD

[9] = target: P1100_IXORI (Ixodes ricinus)
[10] = target: T4, P1142_AMBCA (Amblyomma cajennense)
T4 sequence: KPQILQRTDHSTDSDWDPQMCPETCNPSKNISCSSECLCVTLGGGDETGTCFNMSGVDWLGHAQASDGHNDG

[11] = target: P1078_IXORI (Ixodes ricinus)

Substance	binding [1]	binding [2]	binding [3]	binding [4]	binding [5]	binding [6]	binding [7]	binding [8]	binding [9]	binding [10]	binding [11]
CXCL3 (from UniProt P19876 35-107) (ligand)	no binding (tested: 300 nM)										
CCL4 (from UniProt P13236 24-92) (ligand)	no binding (tested: 300 nM)	no binding (tested: 300 nM)	no binding (tested: 300 nM)	no binding (tested: 300 nM)	no binding (tested: 300 nM)	no binding (tested: 300 nM)	no binding (tested: 300 nM)	no binding (tested: 300 nM)	no binding (tested: 300 nM)	no binding (tested: 300 nM)	no binding (tested: 300 nM)
CXCL5 (from UniProt P42830 37-114) (ligand)	binds	binds	binds	binds	binds	binds	binds	binds	binds	binds	binds
CCL11 (from UniProt P51671 24-97) (ligand)	no binding (tested: 300 nM)	no binding (tested: 300 nM)	no binding (tested: 300 nM)	no binding (tested: 300 nM)	no binding (tested: 300 nM)	no binding (tested: 300 nM)	no binding (tested: 300 nM)	no binding (tested: 300 nM)	no binding (tested: 300 nM)	no binding (tested: 300 nM)	no binding (tested: 300 nM)
CXCL1 (from UniProt P09341 35-107) (ligand)	binds										
CCL2 (from UniProt P13500 24-99) (ligand)	no binding (tested: 300 nM)	no binding (tested: 300 nM)	no binding (tested: 300 nM)	no binding (tested: 300 nM)	no binding (tested: 300 nM)	no binding (tested: 300 nM)	no binding (tested: 300 nM)	no binding (tested: 300 nM)	no binding (tested: 300 nM)	no binding (tested: 300 nM)	no binding (tested: 300 nM)
CCL7 (from UniProt P80098 24-99) (ligand)	no binding (tested: 300 nM)	no binding (tested: 300 nM)	no binding (tested: 300 nM)	no binding (tested: 300 nM)	no binding (tested: 300 nM)	no binding (tested: 300 nM)	no binding (tested: 300 nM)	no binding (tested: 300 nM)	no binding (tested: 300 nM)	no binding (tested: 300 nM)	no binding (tested: 300 nM)
CXCL2 (from UniProt P19875 35-107) (ligand)	binds										
CCL5 (from UniProt P13501 24-91) (ligand)	no binding (tested: 300 nM)	no binding (tested: 300 nM)	no binding (tested: 300 nM)	no binding (tested: 300 nM)	no binding (tested: 300 nM)	no binding (tested: 300 nM)	no binding (tested: 300 nM)	no binding (tested: 300 nM)	no binding (tested: 300 nM)	no binding (tested: 300 nM)	no binding (tested: 300 nM)
CCL13 (from UniProt Q99616 17-98) (ligand)	no binding (tested: 300 nM)	no binding (tested: 300 nM)	no binding (tested: 300 nM)	no binding (tested: 300 nM)	no binding (tested: 300 nM)	no binding (tested: 300 nM)	no binding (tested: 300 nM)	no binding (tested: 300 nM)	no binding (tested: 300 nM)	no binding (tested: 300 nM)	no binding (tested: 300 nM)
CCL21 (from UniProt O00585 24-134) (ligand)	no binding (tested: 300 nM)	no binding (tested: 300 nM)	no binding (tested: 300 nM)	no binding (tested: 300 nM)	no binding (tested: 300 nM)	no binding (tested: 300 nM)	no binding (tested: 300 nM)	no binding (tested: 300 nM)	no binding (tested: 300 nM)	no binding (tested: 300 nM)	no binding (tested: 300 nM)
CXCL10 (from UniProt P02778 22-98) (ligand)	no binding (tested: 300 nM)	no binding (tested: 300 nM)		binds							
CCL20 (from UniProt P78556 27-96) (ligand)	no binding (tested: 300 nM)	no binding (tested: 300 nM)	no binding (tested: 300 nM)	no binding (tested: 300 nM)	no binding (tested: 300 nM)	no binding (tested: 300 nM)	no binding (tested: 300 nM)	no binding (tested: 300 nM)	no binding (tested: 300 nM)	no binding (tested: 300 nM)	no binding (tested: 300 nM)
CCL3 (from UniProt P10147 24-92) (ligand)	no binding (tested: 300 nM)	no binding (tested: 300 nM)	no binding (tested: 300 nM)	no binding (tested: 300 nM)	no binding (tested: 300 nM)	no binding (tested: 300 nM)	no binding (tested: 300 nM)	no binding (tested: 300 nM)	no binding (tested: 300 nM)	no binding (tested: 300 nM)	no binding (tested: 300 nM)
CCL8 (from UniProt P80075 24-99) (ligand)	no binding (tested: 300 nM)	no binding (tested: 300 nM)	no binding (tested: 300 nM)	no binding (tested: 300 nM)	no binding (tested: 300 nM)	no binding (tested: 300 nM)	no binding (tested: 300 nM)	no binding (tested: 300 nM)	no binding (tested: 300 nM)	no binding (tested: 300 nM)	no binding (tested: 300 nM)
CCL17 (from UniProt Q92583 24-94) (ligand)	no binding (tested: 300 nM)	no binding (tested: 300 nM)	no binding (tested: 300 nM)	no binding (tested: 300 nM)	no binding (tested: 300 nM)	no binding (tested: 300 nM)	no binding (tested: 300 nM)	no binding (tested: 300 nM)	no binding (tested: 300 nM)	no binding (tested: 300 nM)	no binding (tested: 300 nM)
CCL19 (from UniProt Q99731 22-98) (ligand)	no binding (tested: 300 nM)	no binding (tested: 300 nM)	no binding (tested: 300 nM)	no binding (tested: 300 nM)	no binding (tested: 300 nM)	no binding (tested: 300 nM)	no binding (tested: 300 nM)	no binding (tested: 300 nM)	no binding (tested: 300 nM)	no binding (tested: 300 nM)	no binding (tested: 300 nM)
